Source: PMC6570896
Results are given in words; binding and its absence hold for the method and conditions named. In cells and extracts the contact can be indirect. Some entries that bind do so weakly or less than the wild type. For some of these results: Where a sequence is shown, tags or fusion partners need not be part of it.

By UniProt entry, the sequences of proteins in these tests, tags left out.
UniProt Q93ZX1: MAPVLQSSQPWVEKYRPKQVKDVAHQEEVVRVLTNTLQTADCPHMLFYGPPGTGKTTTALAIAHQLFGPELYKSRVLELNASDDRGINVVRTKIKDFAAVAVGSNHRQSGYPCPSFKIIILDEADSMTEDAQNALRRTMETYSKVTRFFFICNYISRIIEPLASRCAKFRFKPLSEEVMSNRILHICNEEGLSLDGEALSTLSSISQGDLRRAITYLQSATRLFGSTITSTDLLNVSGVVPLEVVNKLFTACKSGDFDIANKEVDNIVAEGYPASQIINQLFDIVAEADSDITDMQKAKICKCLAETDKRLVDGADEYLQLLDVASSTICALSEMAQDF
UniProt Q9FXM3: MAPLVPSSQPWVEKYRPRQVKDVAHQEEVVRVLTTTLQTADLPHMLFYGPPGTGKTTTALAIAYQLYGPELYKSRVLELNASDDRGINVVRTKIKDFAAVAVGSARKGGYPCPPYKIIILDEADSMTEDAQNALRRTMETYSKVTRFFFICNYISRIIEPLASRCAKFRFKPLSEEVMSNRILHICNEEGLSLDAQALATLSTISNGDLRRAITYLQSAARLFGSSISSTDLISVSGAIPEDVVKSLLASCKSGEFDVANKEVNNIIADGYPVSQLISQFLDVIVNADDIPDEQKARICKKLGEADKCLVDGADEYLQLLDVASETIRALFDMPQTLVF

T1: AtRFC2-YFP^N (Arabidopsis thaliana) (UniProt Q9CAM7)
T1 sequence: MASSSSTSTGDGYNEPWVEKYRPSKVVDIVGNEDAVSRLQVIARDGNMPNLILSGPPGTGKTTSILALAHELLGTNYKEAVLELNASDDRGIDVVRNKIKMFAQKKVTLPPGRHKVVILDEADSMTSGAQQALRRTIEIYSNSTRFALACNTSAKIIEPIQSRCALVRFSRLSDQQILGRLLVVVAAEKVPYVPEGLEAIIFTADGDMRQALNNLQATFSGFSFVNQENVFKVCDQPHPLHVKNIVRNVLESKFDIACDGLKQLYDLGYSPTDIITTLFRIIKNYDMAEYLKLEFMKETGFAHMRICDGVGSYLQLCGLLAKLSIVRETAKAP

T2: OsRFC3-YFP^N (rice (Oryza sativa)) (UniProt Q6YZ54)
T2 sequence: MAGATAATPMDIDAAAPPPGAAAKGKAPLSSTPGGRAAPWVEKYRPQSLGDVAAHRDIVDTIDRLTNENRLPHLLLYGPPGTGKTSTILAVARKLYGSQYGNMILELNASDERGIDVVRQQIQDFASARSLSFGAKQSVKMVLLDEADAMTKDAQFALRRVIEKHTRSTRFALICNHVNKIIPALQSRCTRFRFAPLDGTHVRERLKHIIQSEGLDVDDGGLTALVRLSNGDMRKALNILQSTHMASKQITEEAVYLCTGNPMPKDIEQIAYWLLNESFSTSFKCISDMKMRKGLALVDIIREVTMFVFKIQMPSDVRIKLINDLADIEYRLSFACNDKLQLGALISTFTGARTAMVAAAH

T3: OsRFC5-YFP^N (rice (Oryza sativa)) (UniProt Q852K3)
T3 sequence: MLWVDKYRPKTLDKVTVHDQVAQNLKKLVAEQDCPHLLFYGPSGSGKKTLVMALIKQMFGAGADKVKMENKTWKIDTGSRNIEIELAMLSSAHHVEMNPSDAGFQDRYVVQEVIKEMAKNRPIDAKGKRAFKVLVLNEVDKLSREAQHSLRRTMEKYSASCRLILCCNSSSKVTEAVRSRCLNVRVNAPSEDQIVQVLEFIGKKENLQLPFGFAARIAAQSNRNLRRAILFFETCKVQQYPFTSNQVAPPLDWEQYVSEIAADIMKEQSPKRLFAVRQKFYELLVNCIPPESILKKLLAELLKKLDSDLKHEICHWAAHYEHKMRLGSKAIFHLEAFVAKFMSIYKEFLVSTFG

T4: OsRFC1-YFP^N (rice (Oryza sativa)) (UniProt Q2R2B4)
T4 sequence: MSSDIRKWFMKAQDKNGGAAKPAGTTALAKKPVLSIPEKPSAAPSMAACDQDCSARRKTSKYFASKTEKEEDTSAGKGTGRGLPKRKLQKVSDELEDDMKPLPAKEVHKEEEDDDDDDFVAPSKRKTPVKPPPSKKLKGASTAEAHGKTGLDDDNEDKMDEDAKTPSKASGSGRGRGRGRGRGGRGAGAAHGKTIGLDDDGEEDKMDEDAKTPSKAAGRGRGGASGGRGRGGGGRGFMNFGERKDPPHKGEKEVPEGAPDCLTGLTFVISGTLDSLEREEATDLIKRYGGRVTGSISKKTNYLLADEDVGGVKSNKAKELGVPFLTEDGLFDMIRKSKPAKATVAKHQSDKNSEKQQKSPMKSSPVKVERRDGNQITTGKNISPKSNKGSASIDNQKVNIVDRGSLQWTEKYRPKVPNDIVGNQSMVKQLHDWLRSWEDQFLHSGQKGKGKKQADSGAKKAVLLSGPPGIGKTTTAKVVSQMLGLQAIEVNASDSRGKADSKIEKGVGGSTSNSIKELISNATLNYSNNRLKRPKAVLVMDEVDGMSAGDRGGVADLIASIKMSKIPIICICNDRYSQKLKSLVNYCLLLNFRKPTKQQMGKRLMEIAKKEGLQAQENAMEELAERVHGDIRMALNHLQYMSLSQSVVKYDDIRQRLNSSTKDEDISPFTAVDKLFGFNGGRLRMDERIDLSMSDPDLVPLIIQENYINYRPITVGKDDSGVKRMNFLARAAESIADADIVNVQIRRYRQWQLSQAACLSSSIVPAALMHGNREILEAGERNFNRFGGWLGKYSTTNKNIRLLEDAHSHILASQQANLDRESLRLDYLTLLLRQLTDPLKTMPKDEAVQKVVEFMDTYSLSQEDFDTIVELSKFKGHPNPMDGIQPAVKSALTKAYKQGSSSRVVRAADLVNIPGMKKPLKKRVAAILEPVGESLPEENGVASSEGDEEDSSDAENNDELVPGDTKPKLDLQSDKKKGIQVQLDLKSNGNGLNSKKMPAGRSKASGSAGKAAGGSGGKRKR

T5: OsRFC4-YFP^N (rice (Oryza sativa)) (UniProt Q7XRX1)
T5 sequence: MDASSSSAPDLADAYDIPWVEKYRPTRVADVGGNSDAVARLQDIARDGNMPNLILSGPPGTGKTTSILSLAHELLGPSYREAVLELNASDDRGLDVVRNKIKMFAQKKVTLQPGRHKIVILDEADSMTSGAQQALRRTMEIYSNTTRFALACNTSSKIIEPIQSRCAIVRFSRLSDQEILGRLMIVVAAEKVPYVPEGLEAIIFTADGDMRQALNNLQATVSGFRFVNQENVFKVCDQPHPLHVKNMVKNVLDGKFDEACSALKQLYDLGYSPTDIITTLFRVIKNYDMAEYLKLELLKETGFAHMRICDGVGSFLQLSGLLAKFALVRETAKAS


Tests used:
Test in all cases: split reporter; BiFC: fusions to YFP^N (1-155 aa) and YFP^C (156-239 aa) co-expressed transiently in Nicotiana benthamiana leaf epidermal cells; YFP seen by confocal microscopy
[1] = biological target: T1, AtRFC2-YFP^N (Arabidopsis thaliana)
[2] = biological target: AtPCNA1 Δ244–263 (Arabidopsis thaliana) (UniProt Q9M7Q7)
[3] = biological target: AtPCNA1-YFP^C (Arabidopsis thaliana) (UniProt Q9M7Q7)
[4] = biological target: AtRFC4-YFP^N (Arabidopsis thaliana) (UniProt Q93ZX1)
[5] = biological target: AtPCNA2-YFP^C (Arabidopsis thaliana) (UniProt Q9ZW35)
[6] = biological target: AtPCNA2 Δ245–264 (Arabidopsis thaliana) (UniProt Q9ZW35)
[7] = biological target: T2, OsRFC3-YFP^N (rice (Oryza sativa))
[8] = biological target: T3, OsRFC5-YFP^N (rice (Oryza sativa))
[9] = biological target: T4, OsRFC1-YFP^N (rice (Oryza sativa))
[10] = biological target: T5, OsRFC4-YFP^N (rice (Oryza sativa))
[11] = biological target: OsRFC2-YFP^N (rice (Oryza sativa)) (UniProt Q9FXM3)
[12] = biological target: AtPCNA1 Δ1–120 (Arabidopsis thaliana) (UniProt Q9M7Q7)

| Binder | binding [1] | binding [3] | binding [4] | binding [5] | other results |
| --- | --- | --- | --- | --- | --- |
| AtPCNA1 Δ244–263 (domain or fragment, UniProt Q9M7Q7 1-243) MLELRLVQGSLLKKVLESIKDLVNDANFDCSSTGFSLQAMDSSHVALVSLLLRSEGFEHYRCDRNLSMGMNLGNMSKMLKCAGNDDIITIKADDGGDTVTFMFESPTQDKIADFEMKLMDIDSEHLGIPDAEYHSIVRMPSNEFSRICKDLSSIGDTVVISVTKEGVKFSTAGDIGTANIVLRQNTTVDKPEDAIVIEMKEPVSLSFALRYMNSFTKATPLSDTVTISLSSELPVVVEYKVAE | binds | binds | binds | binds | binding [2]: binds |
| AtPCNA1 Δ144–263 (domain or fragment, UniProt Q9M7Q7 1-143) MLELRLVQGSLLKKVLESIKDLVNDANFDCSSTGFSLQAMDSSHVALVSLLLRSEGFEHYRCDRNLSMGMNLGNMSKMLKCAGNDDIITIKADDGGDTVTFMFESPTQDKIADFEMKLMDIDSEHLGIPDAEYHSIVRMPSNE | binds | – | no binding | – | – |
| AtPCNA1 Δ128–263-YFP^N (domain or fragment, UniProt Q9M7Q7 1-127) MLELRLVQGSLLKKVLESIKDLVNDANFDCSSTGFSLQAMDSSHVALVSLLLRSEGFEHYRCDRNLSMGMNLGNMSKMLKCAGNDDIITIKADDGGDTVTFMFESPTQDKIADFEMKLMDIDSEHLG | no binding | – | no binding | – | – |
| OsPCNA Δ64–263 (domain or fragment, UniProt P17070 1-63) MLELRLVQGSLLKKVLEAIRELVTDANFDCSGTGFSLQAMDSSHVALVALLLRSEGFEHYRCD | – | – | – | – | binding [7]: no binding; binding [8]: no binding; binding [9]: no binding; binding [10]: no binding; binding [11]: no binding |
| OsPCNA Δ1–20-YFP^N (domain or fragment, UniProt P17070 21-263) ELVTDANFDCSGTGFSLQAMDSSHVALVALLLRSEGFEHYRCDRNLSMGMNLNNMAKMLRCAGNDDIITIKADDGSDTVTFMFESPNQDKIADFEMKLMDIDSEHLGIPDSEYQAIVRMPSSEFSRICKDLSSIGDTVIISVTKEGVKFSTAGDIGTANIVCRQNKTVDKPEDATIIEMQEPVSLTFALRYMNSFTKASPLSEQVTISLSSELPVVVEYKIAEMGYIRFYLAPKIEEDEEMKS | – | – | – | – | binding [7]: binds; binding [8]: no binding; binding [9]: binds; binding [10]: binds; binding [11]: no binding |
| AtPCNA1 Δ1–120 (domain or fragment, UniProt Q9M7Q7 121-263) IDSEHLGIPDAEYHSIVRMPSNEFSRICKDLSSIGDTVVISVTKEGVKFSTAGDIGTANIVLRQNTTVDKPEDAIVIEMKEPVSLSFALRYMNSFTKATPLSDTVTISLSSELPVVVEYKVAEMGYIRYYLAPKIEEEEDTNP | binds | binds | binds | binds | binding [12]: binds |

Now from value to binder, other results behind:

| binding [1] | binding [3] | binding [4] | binding [5] | Binder | other results |
| --- | --- | --- | --- | --- | --- |
| binds | binds | binds | binds | AtPCNA2 Δ245–264 (domain or fragment, UniProt Q9ZW35 1-244) MLELRLVQGSLLKKVLEAVKDLVNDANFDCSTTGFSLQAMDSSHVALVSLLLRSEGFEHYRCDRNLSMGMNLGNMSKMLKCAGNDDIITIKADDGSDTVTFMFESPTQDKIADFEMKLMDIDSEHLGIPDAEYHSIVRMPSGEFSRICKDLSSIGDTVVISVTKEGVKFSTAGDIGTANIVLRQNTTVDKPEDAIVIEMNEPVSLSFALRYMNSFTKATPLSETVTISLSSELPVVVEYKVAEM | binding [6]: binds |
| no binding | – | no binding | – | AtPCNA2 Δ145–264 (domain or fragment, UniProt Q9ZW35 1-144) MLELRLVQGSLLKKVLEAVKDLVNDANFDCSTTGFSLQAMDSSHVALVSLLLRSEGFEHYRCDRNLSMGMNLGNMSKMLKCAGNDDIITIKADDGSDTVTFMFESPTQDKIADFEMKLMDIDSEHLGIPDAEYHSIVRMPSGEF | – |
